From the antibiotic and cytotoxicity screens of Wong et al. (2023)
Some of the results follow.

The compounds below were run on HSkMC (human skeletal muscle cells) (assay: cytotoxicity call (relative viability < 0.9)). Conditions: 10 µM.

Structure (SMILES)	cytotoxicity call
C[C@@H]1CN([C@@H](C)CO)C(=O)Cc2cc(NC(=O)c3ccncc3)ccc2O[C@H]1CN(C)S(=O)(=O)c1ccc(Cl)cc1	inactive
C[C@@H]1CCCCO[C@H](CN(C)S(=O)(=O)c2ccccc2)[C@@H](C)CN([C@H](C)CO)C(=O)c2cc(NC(=O)CCC(F)(F)F)ccc2O1	inactive
Cc1ccc(S(=O)(=O)Nc2ccc3c(c2)C(=O)N([C@@H](C)CO)C[C@@H](C)[C@@H](CN(C)C(=O)Nc2ccccc2)OCCCC[C@@H](C)O3)cc1	inactive
COc1ccc(S(=O)(=O)N(C)C[C@H]2OCCCC[C@H](C)Oc3ccc(NC(=O)Nc4ccc(F)cc4)cc3C(=O)N([C@@H](C)CO)C[C@H]2C)cc1	inactive
C[C@@H]1CN([C@@H](C)CO)C(=O)Cc2cc(NC(=O)CCCCCC(=O)Nc3ccccc3N)ccc2O[C@@H]1CN(C)C(=O)Nc1ccc(C(F)(F)F)cc1	inactive
C[C@@H]1CN([C@H](C)CO)C(=O)Cc2cc(NC(=O)Cn3cnnn3)ccc2O[C@H]1CN(C)C(=O)NC1CCCCC1	inactive
COCC#Cc1ccc2c(c1)O[C@@H](CN(C)S(=O)(=O)c1ccc(C)cc1)[C@H](C)CN([C@H](C)CO)S2(=O)=O	inactive
NC(=O)CSc1ncn(-c2ccccc2)n1	inactive
C[C@@H]1CN([C@H](C)CO)C(=O)c2cccc(NC(=O)C3CCOCC3)c2O[C@@H]1CN(C)Cc1ccccc1	inactive
C[C@@H]1CN([C@@H](C)CO)S(=O)(=O)c2ccc(C#C[C@@H](C)O)cc2O[C@H]1CN(C)C(=O)C1CCCCC1	inactive
CCn1cnc(C(=O)NC)c1C(=O)NC	inactive
COc1ccc(NC(=O)Nc2ccc3c(c2)[C@@H]2C[C@@H](CC(=O)N4CCN(C)CC4)O[C@H](CO)[C@@H]2O3)cc1	inactive
O=C1NCCN1c1ncc([N+](=O)[O-])s1	inactive
COc1ccc(NC(=O)Nc2ccc3c(c2)CC(=O)N([C@@H](C)CO)C[C@H](C)[C@@H](CN(C)CC2CCCCC2)O3)cc1	inactive
OC[C@H]1O[C@@H](Oc2c[nH]c3ccccc23)[C@H](O)[C@@H](O)[C@@H]1O	inactive
O=C(C[C@H]1CC[C@@H]2[C@H](COC[C@H](O)CN2S(=O)(=O)c2ccc(Cl)cc2)O1)NCCN1CCCCC1	inactive
CCOC(=O)OC[C@@H]1[C@@H]2NC(=O)N(C)[C@@]1(COC(=O)NCCCCCC(=O)NO)Oc1ccccc12	inactive
C[C@@H]1CCCCO[C@@H](CN(C)Cc2ccc(C(=O)O)cc2)[C@@H](C)CN([C@@H](C)CO)C(=O)c2cc(NS(=O)(=O)c3ccc(Cl)cc3)ccc2O1	inactive
C[C@@H]1CN([C@@H](C)CO)C(=O)Cc2cc(NC(=O)Nc3ccc4c(c3)OCO4)ccc2O[C@@H]1CN(C)C(=O)Nc1cccc2ccccc12	inactive
C[C@H](CO)N1C[C@H](C)[C@H](CN(C)Cc2ccccc2)Oc2ccc(NC(=O)Nc3ccc(C(F)(F)F)cc3)cc2C1=O	inactive
COc1ccc(S(=O)(=O)Nc2ccc3c(c2)C(=O)N([C@H](C)CO)C[C@@H](C)[C@H](CN(C)S(=O)(=O)c2cn(C)cn2)OCCCC[C@@H](C)O3)cc1	inactive
C[C@@H]1CN([C@H](C)CO)C(=O)Cc2cc(NC(=O)Nc3ccc(F)cc3)ccc2O[C@H]1CN(C)S(=O)(=O)c1cn(C)cn1	inactive
Cc1ccccc1S(=O)(=O)N1C[C@H](O)COC[C@H]2O[C@@H](CC(=O)N3CCC(Cc4ccccc4)CC3)CC[C@@H]21	inactive
CC(=O)NCC(=O)N1C[C@H](N(C)Cc2cncnc2)[C@@H]2OCCC[C@@H]21	inactive
C[C@H](CO)N1C[C@H](C)[C@H](CN(C)S(=O)(=O)c2cn(C)cn2)Oc2cc(C#Cc3ccccc3)ccc2S1(=O)=O	inactive
C[C@@H]1CN([C@H](C)CO)C(=O)c2cc(NC(=O)CCC(F)(F)F)ccc2O[C@H]1CN(C)Cc1ccc(-c2ccccc2)cc1	inactive
CN(C)C(=O)C[C@H]1CC[C@H]2[C@@H](COC[C@H](O)CN2S(=O)(=O)c2ccccc2)O1	inactive
CN1CCN(C(=O)C[C@@H]2CC[C@H]3[C@@H](COC[C@H](O)CN3Cc3ccc4c(c3)OCO4)O2)CC1	inactive
CC=Cc1ccc2n(c1=O)C[C@H]1[C@H](CO)[C@@H](C(=O)NCCCN3CCOCC3)[C@@H]2N1Cc1cocn1	inactive
Cc1ccc(S(=O)(=O)Nc2ccc3c(c2)CC(=O)N([C@H](C)CO)C[C@@H](C)[C@H](CN(C)S(=O)(=O)c2cn(C)cn2)O3)cc1	inactive

The compounds below were run on HepG2 (assay: cytotoxicity call (relative viability < 0.9)). Conditions: 10 µM.

Structure (SMILES)	cytotoxicity call
COc1ccc(S(=O)(=O)N(C)C[C@H]2Oc3c(NC(=O)NC(C)C)cccc3C(=O)N([C@@H](C)CO)C[C@H]2C)cc1	inactive
C[C@H]1CN([C@@H](C)CO)C(=O)c2cc(NC(=O)NC3CCCCC3)ccc2O[C@H]1CN(C)S(C)(=O)=O	inactive
Cc1noc(C)c1S(=O)(=O)N(C)C[C@@H]1OCCCC[C@H](C)Oc2ccc(NS(C)(=O)=O)cc2C(=O)N([C@H](C)CO)C[C@@H]1C	inactive
C[C@@H]1CN([C@@H](C)CO)C(=O)Cc2cc(NC(=O)Cc3ccccc3)ccc2O[C@@H]1CN(C)Cc1ccc(Cl)c(Cl)c1	active
CC(=O)N1[C@@H]2Cn3c(cccc3=O)[C@H]1[C@@H](C(=O)N1CCc3ccccc3C1)[C@@H]2CO	inactive
C[C@H](CO)N1C[C@H](C)[C@@H](CN(C)S(=O)(=O)c2ccc(Cl)cc2)Oc2ccc(NS(=O)(=O)c3cn(C)cn3)cc2CC1=O	inactive
Cc1ccc(S(=O)(=O)Nc2ccc3c(c2)C(=O)N([C@@H](C)CO)C[C@@H](C)[C@@H](CN(C)C(=O)Nc2ccc(F)cc2)OCCCC[C@H](C)O3)cc1	inactive
C[C@@H]1CN([C@@H](C)CO)S(=O)(=O)c2ccc(C#Cc3cccnc3)cc2O[C@H]1CN(C)C(=O)Nc1ccc2c(c1)OCO2	inactive
CC(C)NC(=O)N(C)C[C@H]1Oc2ccc(NC(=O)C3CCCCC3)cc2C(=O)N([C@@H](C)CO)C[C@@H]1C	inactive
Cc1ccc(S(=O)(=O)N(C)C[C@@H]2OCCCC[C@H](C)Oc3ccc(NC(=O)CCC(F)(F)F)cc3C(=O)N([C@H](C)CO)C[C@H]2C)cc1	inactive
C[C@@H]1CN([C@@H](C)CO)C(=O)Cc2cc(NC(=O)c3ccncc3)ccc2O[C@H]1CN(C)S(=O)(=O)c1ccc(Cl)cc1	inactive
C[C@@H]1CCCCO[C@H](CN(C)S(=O)(=O)c2ccccc2)[C@@H](C)CN([C@H](C)CO)C(=O)c2cc(NC(=O)CCC(F)(F)F)ccc2O1	inactive
Cc1ccc(S(=O)(=O)Nc2ccc3c(c2)C(=O)N([C@@H](C)CO)C[C@@H](C)[C@@H](CN(C)C(=O)Nc2ccccc2)OCCCC[C@@H](C)O3)cc1	inactive
COc1ccc(S(=O)(=O)N(C)C[C@H]2OCCCC[C@H](C)Oc3ccc(NC(=O)Nc4ccc(F)cc4)cc3C(=O)N([C@@H](C)CO)C[C@H]2C)cc1	inactive
C[C@@H]1CN([C@@H](C)CO)C(=O)Cc2cc(NC(=O)CCCCCC(=O)Nc3ccccc3N)ccc2O[C@@H]1CN(C)C(=O)Nc1ccc(C(F)(F)F)cc1	inactive
C[C@@H]1CN([C@H](C)CO)C(=O)Cc2cc(NC(=O)Cn3cnnn3)ccc2O[C@H]1CN(C)C(=O)NC1CCCCC1	inactive
COCC#Cc1ccc2c(c1)O[C@@H](CN(C)S(=O)(=O)c1ccc(C)cc1)[C@H](C)CN([C@H](C)CO)S2(=O)=O	inactive

Structure (SMILES)	cytotoxicity call
NC(=O)CSc1ncn(-c2ccccc2)n1	inactive
C[C@@H]1CN([C@H](C)CO)C(=O)c2cccc(NC(=O)C3CCOCC3)c2O[C@@H]1CN(C)Cc1ccccc1	inactive
C[C@@H]1CN([C@@H](C)CO)S(=O)(=O)c2ccc(C#C[C@@H](C)O)cc2O[C@H]1CN(C)C(=O)C1CCCCC1	inactive
CCn1cnc(C(=O)NC)c1C(=O)NC	inactive
COc1ccc(NC(=O)Nc2ccc3c(c2)[C@@H]2C[C@@H](CC(=O)N4CCN(C)CC4)O[C@H](CO)[C@@H]2O3)cc1	inactive
O=C1NCCN1c1ncc([N+](=O)[O-])s1	inactive
COc1ccc(NC(=O)Nc2ccc3c(c2)CC(=O)N([C@@H](C)CO)C[C@H](C)[C@@H](CN(C)CC2CCCCC2)O3)cc1	inactive
OC[C@H]1O[C@@H](Oc2c[nH]c3ccccc23)[C@H](O)[C@@H](O)[C@@H]1O	inactive
O=C(C[C@H]1CC[C@@H]2[C@H](COC[C@H](O)CN2S(=O)(=O)c2ccc(Cl)cc2)O1)NCCN1CCCCC1	inactive
CCOC(=O)OC[C@@H]1[C@@H]2NC(=O)N(C)[C@@]1(COC(=O)NCCCCCC(=O)NO)Oc1ccccc12	inactive
C[C@@H]1CCCCO[C@@H](CN(C)Cc2ccc(C(=O)O)cc2)[C@@H](C)CN([C@@H](C)CO)C(=O)c2cc(NS(=O)(=O)c3ccc(Cl)cc3)ccc2O1	inactive
C[C@@H]1CN([C@@H](C)CO)C(=O)Cc2cc(NC(=O)Nc3ccc4c(c3)OCO4)ccc2O[C@@H]1CN(C)C(=O)Nc1cccc2ccccc12	inactive
C[C@H](CO)N1C[C@H](C)[C@H](CN(C)Cc2ccccc2)Oc2ccc(NC(=O)Nc3ccc(C(F)(F)F)cc3)cc2C1=O	active
COc1ccc(S(=O)(=O)Nc2ccc3c(c2)C(=O)N([C@H](C)CO)C[C@@H](C)[C@H](CN(C)S(=O)(=O)c2cn(C)cn2)OCCCC[C@@H](C)O3)cc1	inactive
C[C@@H]1CN([C@H](C)CO)C(=O)Cc2cc(NC(=O)Nc3ccc(F)cc3)ccc2O[C@H]1CN(C)S(=O)(=O)c1cn(C)cn1	inactive
Cc1ccccc1S(=O)(=O)N1C[C@H](O)COC[C@H]2O[C@@H](CC(=O)N3CCC(Cc4ccccc4)CC3)CC[C@@H]21	active
